The other results are listed elsewhere or left out.
B1: chr21:43756582:43756683:+|3pUTR|ENSG00000160209|msi1|total|mutant (ssRNA)
RNA: GGGAGUUCUACAGUCCGACGAUCGCAUUCGAACUUUUGGUUCUUACUUUGCUGCUCGUUCCGUCCCUGGGGAUUUCAGAUCUCCGGCUGUUGUUUCACCGUAUGGGAGGGUUGAUGUGAGCUUGCUUGGAGACACACGGUGCACAACAGAGGAUUGAGCAUCA
B2: chr15:90882754:90882855:+|3pUTR|ENSG00000140564|msi1_unk|total|mutant (ssRNA)
RNA: GGGAGUUCUACAGUCCGACGAUCCACUUUGUGAUUAUUUCACUUCCGAUGCUGAUGAUUUGUUUUUGUAUUUUUAAUGGGGGCCGCAGCUGGACUACCCACGUUCUCACACCCACCGUCCGCCCUGCUCCUCCCUGGCUGCCCCAACAGAGGAUUGAGCAUCA
B3: chr1:33300114:33300153:+|3pUTR|ENSG00000160094|msi1_unk|FALSE|overlapping (ssRNA)
RNA: GGGAGUUCUACAGUCCGACGAUCCCCUGCCCCCAGCCCCCACAGACACACCCCAAUCUGAAAGCCAUGCGUGUCGGUGUAUAUAGGAACCAUGUACAGAGCCCAGAGAAGCCCCCUACAUCCCCCCGGGAAAAAAAAGAAAACCAACAGAGGAUUGAGCAUCA
B4: ENSG00000071054:stop:overlap|stop_codon|ENSG00000071054|stop_codon|NA|stop_codon (ssRNA)
RNA: GGGAGUUCUACAGUCCGACGAUCCUGGUGGCAGCAGUCAGGUUUAUUUCAUGACCUUAGGCAGGACUUCUCUUCUGAGCUGGUAGAAGCAGUGUGAUCCAGGGAUUACUGGCCUCCAGAGUCUUCAAGAUCCUGAGAACUUGGCAACAGAGGAUUGAGCAUCA
B5: ENSG00000174780:stop:overlap|stop_codon|ENSG00000174780|stop_codon|NA|stop_codon (ssRNA)
RNA: GGGAGUUCUACAGUCCGACGAUCAAGCUGAAGGUUGGAAGUUUGUUAAACUUAUCUGUAAAUAUAACGUGCAUAUAACUUUGUAGAGUAUCUUCUAAAAUUGCAUUUGACUUCUGUGAAAUUAUUAAAUGGAAGUUAUUGAUGCAACAGAGGAUUGAGCAUCA
B6: chr2:216672738:216672882:-|3pUTR|ENSG00000115461|msi1|FALSE|unique (ssRNA)
RNA: GGGAGUUCUACAGUCCGACGAUCUUCUCUUAGGCUUUUGUUUCUAUUUCAAACAUACUUUCUUGGUUUUCUAAUGGAGUAUAUAGUUUAGUCAUUUCACAGACUCUGGCCUCCUCUCCUGAAAUCCUUUUGGAUGGGGAAAGGCAACAGAGGAUUGAGCAUCA
B7: chr2:42682433:42682535:+|CDS|ENSG00000057935|unk|FALSE|unique (ssRNA)
RNA: GGGAGUUCUACAGUCCGACGAUCUCACGCUAUGGAUACAUUGUAUAGACACAGCUAUGAUUUGAGCAGUGCCAUUAGUGUCUUAGUACCACUCGGAGGACCUGUUUUAUGCAGAGAUGAAAUGGAGGAAUGGUCAGCCUCUGACAACAGAGGAUUGAGCAUCA
B8: chr7:73478266:73478367:-|CDS|ENSG00000009954|unk|total|mutant (ssRNA)
RNA: GGGAGUUCUACAGUCCGACGAUCGAGUGGCUCGCCACUCAAAGUGAAGAACUCAAAGAAUUCCAAAUCUCCUGAAGAACAUCCCGAAGAAAUGAUGAAGAUGAUGUCGCCCAAUAAGCUGCACACUAACUUUCACAUUCCUAACAACAGAGGAUUGAGCAUCA
B9: chr21:43695798:43695899:+|3pUTR|ENSG00000160208|msi1|total|mutant (ssRNA)
RNA: GGGAGUUCUACAGUCCGACGAUCACAAUAUUUUGUAAAAUGAUGCUUCCCCCUUCUCCAUGGUCCCGUCAAUUUUGUACAAUCCGGUAUCUGACUUUACAAGUUUGUUAUCCUUUCUAAUUUUUACUGAACUGAAAGCACAAACAACAGAGGAUUGAGCAUCA
B10: ENSG00000187498:stop:overlap|stop_codon|ENSG00000187498|stop_codon|NA|stop_codon (ssRNA)
RNA: GGGAGUUCUACAGUCCGACGAUCAGGUGAACCGGGACCUCCUGGAUUGCCAGGCUCCGUGGGGUCUCCAGGAGUUCCAGGAAUAGGCCCCCCUGGAGCUAGGGGUCCCCCUGGAGGACAGGGACCACCGGGGUUGUCAGGCCCCAACAGAGGAUUGAGCAUCA
B11: chr6:122456482:122456612:-|CDS|ENSG00000111897|unk|FALSE|unique (ssRNA)
RNA: GGGAGUUCUACAGUCCGACGAUCUGCUUUGGUUUGGCUAUGUUCUAUCUUCUUCUCUCUUUACUAAUGAUCAAAGUGAAGAGUAGCAGUGAUCCUAGAGCUGCAGUGCACAAUGGGUAAGUUUUUAAAUAAGCUUCAAUAUAACAACAGAGGAUUGAGCAUCA
B12: chr5:96979339:96979440:+|CDS|ENSG00000113441|unk|total|mutant (ssRNA)
RNA: GGGAGUUCUACAGUCCGACGAUCGAGGAGGAUGAAGAGGAUUAUGAGUCAUCAGCAAAGCUGCUGGGCAUGUCCUUCAUGAACCGAAGCUCAGGCCUUCGGAACAGUGCAACUGGUUACAGGCAGAGCCCAGAUGGGGCUUGUCAACAGAGGAUUGAGCAUCA
B13: chr17:78107396:78113211:-|three_prime_utr|ENSG00000141524|control|control|control (ssRNA)
RNA: GGGAGUUCUACAGUCCGACGAUCUUGGGACAACCGAGGAGGCUGCGGCACCCCCUGCCCUGCUCACAGAUGAACAGGAUGCCUAGGGGGACGGCGAUGGGCCUCACGGGCCCGCCCAGCACCCUGAGACCACACUGUUGCCUCCAACAGAGGAUUGAGCAUCA
B14: ENSG00000160209:stop:overlap|stop_codon|ENSG00000160209|stop_codon|NA|stop_codon (ssRNA)
RNA: GGGAGUUCUACAGUCCGACGAUCCCUUGACCUCCUGGGCUGAAGCAAUCUUUCUGCCUCCACCUCCCGAGUGGCUGGGACUAUAGUUGUGCACCAGCACGCCCACCUCCUGCCCAGGGUUGUUACUGGGGUGGUCACGUGGGCCAACAGAGGAUUGAGCAUCA
B15: chr5:173316221:173316322:-|3pUTR|ENSG00000113739|msi1|FALSE|unique (ssRNA)
RNA: GGGAGUUCUACAGUCCGACGAUCAGUACUUUCAGUUUGGCGAGCCGUGAGGUCUCUGUCGAAACUACUCAACUCUGCCGUCCUAGCACAAAAGCAGCCAUAGACAACACACAAACGAGAGGGCUUGGCUCCCUUCCAGGAAGACAACAGAGGAUUGAGCAUCA
B16: chr2:96301550:96301651:-|CDS|ENSG00000144028|msi1|FALSE|unique (ssRNA)
RNA: GGGAGUUCUACAGUCCGACGAUCAAGGCGAAAGGAGAUUGACCUGCUGCUGGGUCAAACAGAUGAUACCAGAUACCAUGUGCUAGUGAACCUGGGCAAAAAGAUCACAGACUAUGGUGGAGAUAAGGAAAUCCAAAAUAUGGGCAACAGAGGAUUGAGCAUCA
B17: chrX:106900062:106900748:-|three_prime_utr|ENSG00000147223|control|control|control (ssRNA)
RNA: GGGAGUUCUACAGUCCGACGAUCGAGGCAGCCAGAGUCUGAUUGGGGUUCAGUUUGUCUGGCAAGUUUUCACAGACAUCAGUUAGCCGGAAGUAUUAGUCCAGCAGAUAGAGCUUUCUGGACUGAAAAUUGGGUCAUCUAGCUCAACAGAGGAUUGAGCAUCA
B18: chr9:101390727:101390839:-|CDS|ENSG00000136897|unk|total|mutant (ssRNA)
RNA: GGGAGUUCUACAGUCCGACGAUCCAGAAAAGAGAAAGAGCCAGUGGUUGUUGAGACAGCCGAAGAGAAAAAGGAACCUAUCCCCGUGUGUCCACCUUUACGAAGCCGAGCAUACACACCACCUGAAGAUCUCCAGAGUCGUUUCAACAGAGGAUUGAGCAUCA
B19: ENSG00000136451:be:win_2901|3pUTR|ENSG00000136451|bound_else_gene|NA|bound_elsewhere_windowed (ssRNA)
RNA: GGGAGUUCUACAGUCCGACGAUCUCUUUACACCAUCAUGCCACGCAUUGUUUUUAAAGCAUUGCGUUAAAAAAAAAAUUAACUAAACCAAGAUGCUGUGAUUUUUUAAGUUGCAAUAUGUUUUUGGUUUUUUUCAUUUUUUAACAACAGAGGAUUGAGCAUCA
B20: chr1:202941098:202941199:-|3pUTR|ENSG00000159346|msi1_unk|FALSE|overlapping (ssRNA)
RNA: GGGAGUUCUACAGUCCGACGAUCCCUCCCUUACCCCCAUCCUUAACUUUGUAUCCUGGCUUAUAACAGGCCAUCCAUUUUUGUAGCACACUUUUCAAAAACAAUUAUAUACCCUGGUCCCAUCUUUCUAGGGCCUGGAUCUGCCAACAGAGGAUUGAGCAUCA
B21: ENSG00000198589:be:win_1601|CDS|ENSG00000198589|bound_else_gene|NA|bound_elsewhere_windowed (ssRNA)
RNA: GGGAGUUCUACAGUCCGACGAUCAGUCUUCCAAAUCUCAUGUUAGCAGAGCAGUACUUGAACUUUGCCUUGCAUUUUCAAAAUAUCUGAGUAAUCUGCAGAAUGGGAUGCCCCUGCUCAAGCAAUUGUGUGAUCACGUUCUUCCAACAGAGGAUUGAGCAUCA
B22: ENSG00000116560:stop:overlap|stop_codon|ENSG00000116560|stop_codon|NA|stop_codon (ssRNA)
RNA: GGGAGUUCUACAGUCCGACGAUCCAGCAGGAUAUGGUAGAGGGAGAGAAGAGUACGAAGGCCCAAACAAAAAACCCCGAUUUUAGAUGUGAUAUUUAGGCUUUCAUUCCAGUUUGUUUUGUUUUUUUGUUUAGAUACCAAUCUCAACAGAGGAUUGAGCAUCA

These binders were tested against MSI1 full-length (mouse, UniProt Q61474 1-362) (assay: nsRBNS (natural sequence RNA bind-n-seq); RBNS binding buffer (assumed for nsRBNS): 25 mM Tris pH 7.5, 150 mM KCl, 3 mM MgCl2, 0.01% Triton X-100, 500 ug/ml BSA, 20 U/ml SUPERase-In, 4 C; UNK is unkempt and MSI1 is Musashi-1; names of the RNAs are library labels; protein concentration not given here; high values mean tight binding).
UniProt Q61474, sequence (Q61474 whole entry): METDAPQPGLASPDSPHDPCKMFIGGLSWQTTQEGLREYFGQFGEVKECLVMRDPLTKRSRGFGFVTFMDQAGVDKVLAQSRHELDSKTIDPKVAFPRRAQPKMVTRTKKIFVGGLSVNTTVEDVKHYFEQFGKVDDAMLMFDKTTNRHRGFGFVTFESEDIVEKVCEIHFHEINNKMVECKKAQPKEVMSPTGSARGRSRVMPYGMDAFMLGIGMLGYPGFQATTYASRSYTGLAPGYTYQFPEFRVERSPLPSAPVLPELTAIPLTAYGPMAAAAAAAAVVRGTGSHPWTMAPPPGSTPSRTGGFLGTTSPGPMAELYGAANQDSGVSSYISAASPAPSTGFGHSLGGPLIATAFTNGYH

Row | Binder | binding signal
1 | B1 | 0.457 enrichment R
2 | B2 | 0.642 enrichment R
3 | B3 | 1.04 enrichment R
4 | B4 | 0.605 enrichment R
5 | B5 | 0.786 enrichment R
6 | B6 | 3.74 enrichment R
7 | B7 | 0.568 enrichment R
8 | B8 | 0.187 enrichment R
9 | B9 | 0.493 enrichment R
10 | B10 | 0.496 enrichment R
11 | B11 | 0.498 enrichment R
12 | B12 | 0.381 enrichment R
13 | B13 | 0.328 enrichment R
14 | B14 | 0.291 enrichment R
15 | B15 | 1.08 enrichment R
16 | B16 | 0.411 enrichment R
17 | B17 | 1.26 enrichment R
18 | B18 | 0.529 enrichment R
19 | B19 | 0.269 enrichment R
20 | B20 | 6.23 enrichment R
21 | B21 | 0.24 enrichment R
22 | B22 | 0.493 enrichment R
